The record followed here is PubChem BioAssay AID1508624 (National Center for Advancing Translational Sciences (NCATS), 2021).

Hit rate of the full screen: of about 48,000 compounds, about 120 (0.25%) were called active. About 4% were inconclusive and are not listed. Calls follow the shape of the dose curve; as a rule, active = well fitted activation curve with a large enough effect; inconclusive = small, poorly fitted or top-dose-only effect, or another doubt; inactive = no such curve, though single readings can be large or run the other way. Some of the results follow.

The assay is described as follows: Primary qHTS for Identification of Small Molecule Activators of Huntingtin-Antisense Promoter Activity. Also: nearly all actives have a fitted effect of over 55% in size. Particulars: HEK293 HTT-AS promoter firefly luciferase reporter, 24 h; series mostly up to 57.5 µM; activity change, positive = activation: at the top concentration. The procedure, abridged:
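Luminescence was read after Dual-Glo reagent and a 10 min room-temperature incubation. Values were normalized to vehicle (0% activity) and zero RLU (-100% activity). Reporter HEK293 cells had been exposed to compounds (up to 57.5 uM final) for 24 h.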
With `CCN(CC)c1ccc(NC(=O)C(NS(=O)(=O)c2cccs2)C(C)C)c(C)c1` (configuration not stated), the “activity change, positive = activation” value is inactive: -13.6%. Take `O=C(OCc1ccccc1F)c1ccc(-c2nnn(Cc3ccccc3)n2)cc1`: the “activity change, positive = activation” value was inactive: -5.82%. Regarding `CN(C(=O)c1cnc(N2CCOCC2)c2ccccc12)c1ccccc1F`, the “activity change, positive = activation” value is inactive: -12.1%. Take `CCn1nc(-c2ccccc2)c(-c2ccccc2)c(C(=O)Nc2ccccc2C(N)=O)c1=O`: the “activity change, positive = activation” value was inactive: -6.13%. The value for `CCCOc1ccc2c(c1)CC[C@@H]1[C@@H]2CC[C@]2(C)C(OC)CC[C@@H]12` (some centres not stated) was inactive: 0.247%; that for `COc1ccc(-n2nnnc2C2CCN(S(=O)(=O)c3cccc(Cl)c3C)CC2)cc1` was inactive: -16%; that for `Cc1ccc(N2CCN(Cc3nnc(-c4ccc5c(c4)OCO5)o3)CC2)c(C)c1` was inactive: -6.68%. As to `Cc1cccc(NC(=O)Cn2nc(C)c3nn(-c4ccc(Cl)cc4)c(C)c3c2=O)c1C`, the “activity change, positive = activation” value was inactive: -31.7%.

On to `COc1ccccc1N1CCN(C(=O)c2ccc3c(c2)N(Cc2ccccc2)C(=O)c2ccccc2S3(=O)=O)CC1`, for which the “activity change, positive = activation” value was inactive: -23.8%. As to `Cc1cc(C)cc(NC(=O)CSCc2cc(=O)c3cc(Cl)ccc3[nH]2)c1`, the “activity change, positive = activation” value is inactive: -14.5%.

As to `O=C(c1cnc(N2CCOCC2)c2ccccc12)N1CCN(c2ccc(F)cc2)CC1`, the “activity change, positive = activation” value is inactive: -27.8%. With `CC1(C)CC(=O)c2cc(-c3nc(-c4ccc(Br)cc4)cs3)c(=O)n(-c3ccccc3)c2C1`, the “activity change, positive = activation” value was inactive: -4.79%. The value for `Cc1c(-c2nc(-c3ccc4c(c3)[nH]c(=O)n4C)no2)cccc1[N+](=O)[O-]` was inactive: -18.3%; that for `Cc1cccc(-c2noc(CN(C(C)C)S(=O)(=O)c3ccc(Br)cc3)n2)c1` was inactive: -34.7%. The value for `O=C1c2ccccc2-c2onc3c(Br)cc(NC4CCCCC4)c1c23` was inactive: -5.64%. The value for `CN1C(C(=O)Nc2ccccn2)=C(O)c2ccccc2S1(=O)=O` was “inactive”. For `Cc1cccc(N2C(=O)CSC23C(=O)N(CC(=O)NCCc2ccccc2)c2ccccc23)c1` (configuration not stated), the “activity change, positive = activation” value was inactive: -9.38%. The result for `O=C(CSc1nnc(-c2cccs2)o1)Nc1cccc(C(F)(F)F)c1` reads inactive: -8.32% [at 11.5 µM, percent change from vehicle, -100% = no light]; that for `COc1ccc(-c2cc(C(F)(F)F)n3nc(-c4ccc(Cl)cc4)cc3n2)cc1OC`, inactive: -1.27%. The result for `COCCNC(=O)CSc1nc2cc3c(cc2c(=O)n1CCCCCC(=O)NCCc1ccc(OC)c(OC)c1)OCO3` reads inactive: -1.87%. On to `COc1c(C)c2c(c(O)c1C/C=C(\C)CCC(=O)OCCN1CCOCC1)C(=O)OC2`, for which the “activity change, positive = activation” value was inactive: -39%. As for `Cc1ccc(CN(C(=O)COc2ccc(Cl)c(C)c2)c2ccccn2)o1`, the “activity change, positive = activation” value was inactive: -17.4%. As to `C[C@]12CCC(=O)C=C1C=C[C@@H]1[C@@H]2CC[C@@]2(C)[C@H]1CC[C@@]21CCC(=O)O1`, the “activity change, positive = activation” value was inactive: -33.1%.

For the molecule `O=C(CN1C(=O)COc2ccc(S(=O)(=O)N3CCOCC3)cc21)N1CCN(c2cccc(C(F)(F)F)c2)CC1`, the “activity change, positive = activation” value is inactive: -15.6%. The result for `Cc1oc2ncn(C)c(=O)c2c1C(=O)Nc1ccccn1` reads inactive: 4.52%; that for `CN(C)S(=O)(=O)c1ccc(C(=O)NCCS(=O)(=O)N2CCN(c3ccccc3)CC2)cc1`, inactive: -5.21%; that for `Cc1ccc(-c2cc(-c3ccc4c(c3)NC(=O)CO4)nc3c2COc2ccc(C)cc2-3)cc1`, inactive: -2.76%. The value for `COc1ccc(OC)c(CNC(=O)c2cc3cc4ccc(OC)cc4nc3o2)c1` was inactive: 6.9%; that for `Cc1cc(NC(=O)c2ccccc2Cl)ccc1NC(=O)c1ccccc1` was inactive: 23.7%; that for `COc1ccc(-c2noc(COc3cc(C)c(Br)c(C)c3)n2)cc1OC` was inactive: 16.8%. On to `COC(=O)[C@@H](N)Cc1ccc(O)c(O)c1`, for which the “activity change, positive = activation” value is inactive: -14%.

For `Cc1ccc(C(=O)/C=C/c2cn(CC(O)CN3CCc4ccccc43)c3ccccc23)cc1` (configuration not stated), the “activity change, positive = activation” value was inactive: -1.15%. The result for `Cc1cc(-n2c(C)nc3ccccc3c2=O)ccc1NC(=O)c1ccc(C)c([N+](=O)[O-])c1` reads inactive: -36.6%; that for `Brc1ccc(-c2nnc3sc(CN4CCCCC4)cn23)cc1`, inactive: -1.01%; that for `Cc1ccccc1-c1nnc(CN2CCN(c3cccc(C)c3C)CC2)o1`, inactive: -8.22%. The value for `COc1cccc(NC(=O)CSc2nc3c([nH]c4ccccc43)c(=O)n2-c2ccccc2)c1` was inactive: -25.1%. As to `CCCN1C(=O)c2[nH]nc(-c3ccccc3O)c2C1c1cccc(OCc2ccccc2)c1` (configuration not stated), the “activity change, positive = activation” value is inactive: -29.5%. As for `Cc1ccc(NC(=O)CSc2nnc(C)n3c2cc2sccc23)c(C)c1`, the “activity change, positive = activation” value is inactive: -3.78%. The value for `CCOc1ccccc1NC(=O)CSc1nnc(N)s1` was inactive: 7.61% [at 11.5 µM, percent change from vehicle, -100% = no light]; that for `COCCNC(=O)C(=O)NCC(c1cccnc1)N1CCN(c2ccccc2OC)CC1` (configuration not stated) was inactive: -11.3%; that for `CC(C)(C)NC(=O)c1cnn(-c2ccccc2)c1C1CCN(C(=O)OC(C)(C)C)CC1` was inactive: -8.28%.

For the molecule `O=C(Cn1ncc2c3ccccc3n(Cc3ccccc3F)c2c1=O)NC1CCCCCC1`, the “activity change, positive = activation” value was inactive: -11.6%. The result for `O=C(NCc1ccccc1Cl)c1cc2c(s1)-c1ccccc1SC2` reads inactive: 3.44%. In the case of `COc1cc(C(=O)NCC(c2cccnc2)N2CCc3ccccc3C2)cc(OC)c1OC` (configuration not stated), the “activity change, positive = activation” value was inactive: -14.5%. Regarding `CCC(=O)Nc1ccccc1-c1nc2ccccc2n(CC(=O)c2ccc(C)c(C)c2)c1=O`, the “activity change, positive = activation” value is inactive: -11.2%. The value for `CN1CCN(C(=O)c2ccc3c(c2)N(Cc2c(F)cccc2Cl)C(=O)c2ccccc2S3)CC1` was inactive: -29.4%. The value for `CCc1sc(Nc2ccc(Cl)cc2)nc1-c1cc2cccc(OC)c2oc1=O` was inactive: -1.59%. The value for `COc1ccc(-c2noc(N3CCN(c4cccc(Cl)c4)CC3)n2)cc1OC` was inactive: -3.02%; that for `CC(C(=O)Nc1ccc(F)c(Cl)c1)N1Cc2ccccc2C1=O` (configuration not stated) was inactive: -22.6%.

Turning to `Cc1cc(OCC(=O)Nc2cc(-c3nc4ccccc4[nH]3)ccc2C)ccc1Cl`, the “activity change, positive = activation” value was inactive: -26.1%. With `CCSc1oc(-c2ccc(F)cc2)nc1S(=O)(=O)c1ccc(C)cc1`, the “activity change, positive = activation” value was inactive: -25.4%. The value for `CCOc1ccc(C(=O)CSc2nnc3cc(C)c4ccccc4n23)cc1` was inactive: -2.06%; that for `Cc1ccccc1C(=O)Nc1nnc(SCc2cc(=O)n3ccccc3n2)s1` was inactive: -7.16%. With `CCOc1cc(C(=O)Nc2nnc3n2CCS3)cc(OCC)c1OCC`, the “activity change, positive = activation” value was inactive: -10.7%. The result for `COc1ccccc1CNC(=O)COc1cc(=O)n(C)c2ccccc12` reads inactive: -1.7%. Take `CCCCC(CC)CNC(=O)c1ccc2c(=O)n(CCOC)c(=O)[nH]c2c1` (configuration not stated): the “activity change, positive = activation” value was inactive: -25%. The result for `CC(C)(C)c1ccc(C(=O)NCC(c2cccs2)S(=O)(=O)c2ccc(F)cc2)cc1` (configuration not stated) reads inactive: -58.4%; that for `Cc1ccc(N(CC(=O)NCC(C)c2ccccc2)S(=O)(=O)N(C)C)cc1` (configuration not stated), inactive: -15.1%; that for `CC(=O)c1cccc(S(=O)(=O)N2CCN(c3ccccc3F)CC2)c1`, inactive: -20.7%. The value for `Cc1ccc(CN2CCC(CNC(=O)c3cc4ccc5cccnc5c4[nH]3)CC2)cc1` was inactive: -10%; that for `Cc1cc(S(=O)(=O)C(CNC(=O)COc2ccccc2)c2cccs2)ccc1F` (configuration not stated) was inactive: 3.35%. Consider `COc1ccc(NC(=O)CCN2CCN(CCO)CC2)c(OC)c1`, for which the activity change, positive = activation is inactive: 14.8% [at 11.5 µM, percent change from vehicle, -100% = no light]. With `CS(=O)(=O)Oc1ccc2c(NC(N)=O)c(C(=O)c3ccc(Cl)cc3Cl)oc2c1`, the “activity change, positive = activation” value is inactive: 19.1%. As for `O=C(Nc1ccc2nc(SCc3ccccc3)sc2c1)c1cccc(F)c1`, the “activity change, positive = activation” value was inactive: -10.5%. The value for `COc1ccc(OCCSc2nc(C)c(Cc3ccccc3)c(=O)[nH]2)cc1` was inactive: -9.28%; that for `COc1ccccc1Cn1cc(C(=O)c2ccc(Cl)cc2)c(=O)c2cc3c(cc21)OCCO3` was inactive: -14.1%. Turning to `COc1ccc(Oc2nc3c(c(=O)n(C)c(=O)n3C)n2Cc2ccccc2Cl)cc1`, the “activity change, positive = activation” value was inactive: -2.3%. For `O=S(=O)(NCCc1csc2nc(-c3ccc(Cl)cc3)nn12)c1ccc(Oc2ccccc2)cc1`, the “activity change, positive = activation” value is inactive: -32.2%. Consider `CC(=O)c1cccc(NC(=O)CSc2nnc3ccc(-c4ccc(C)cc4)nn23)c1`, for which the “activity change, positive = activation” value is inactive: 0.521%.

Turning to `Cc1cc2nc(-c3ccc(Cl)cc3)cc(C(F)(F)F)n2n1`, the “activity change, positive = activation” value is inactive: -22.6%. Turning to `Nc1ccncc1N`, the “activity change, positive = activation” value is inactive: -9.12%.

On to `Cc1ccccc1-c1nc(C(N)=O)c2c(n1)n(-c1ccc3c(c1)OCO3)c(=O)n2C`, for which the “activity change, positive = activation” value was inactive: -17.8%.

Turning to `CN(C)S(=O)(=O)c1ccc2c(c1)N(CC(=O)NCc1cccc(Br)c1)C(=O)CS2`, the “activity change, positive = activation” value is inactive: -5.18%. On to `O=C(NCc1ccco1)C1CCN(C(=O)N2CCOc3ccc(Cl)cc32)CC1`, for which the “activity change, positive = activation” value was inactive: -1.49%. Turning to `Cc1cc2c(cc1S(=O)(=O)CCC(=O)NC1CCC(C)CC1)OCC(=O)N2` (configuration not stated), the “activity change, positive = activation” value is inactive: -8.04%. The value for `Cc1ccc(-c2nnc(NC(=O)c3ccc4c(c3)OCCO4)o2)c(C)c1` was inactive: 3.6%; that for `O=C1CC(c2nnc(Cc3ccc(Cl)cc3)o2)CN1c1ccccc1` (configuration not stated) was inactive: -15.8%; that for `COc1ccccc1-c1nnc2n(CCc3ccccc3)c(=O)c3ccccc3n12` was inactive: -19.5%.

With `Cc1ccc(C)c(Cn2c(=O)n(Cc3ccc(C(=O)NC4CCN(Cc5ccccc5)CC4)cc3)c(=O)c3ccccc32)c1`, the “activity change, positive = activation” value is inactive: -15.9%. The result for `CCN(CC)CCNC(=O)c1ccc2nc(-c3ccccc3)c(-c3ccc(CN4CCC(n5c(=O)[nH]c6ccccc65)CC4)cc3)nc2c1` reads inactive: -25.5%.

Take `Cc1ccc(N2CCN(C(=O)NCc3noc4ccccc34)CC2C)cc1` (configuration not stated): the “activity change, positive = activation” value is inactive: -12.4%. Consider `Cc1cccc(C(=O)Nc2ccc(-c3nc4cc(C(C)C)ccc4o3)cc2)c1`, for which the “activity change, positive = activation” value was inactive: 0%. The value for `COc1ccccc1N1CCN(C(=O)c2cnn(-c3ccc(C)c(C)c3)c2C2CCN(C(=O)OC(C)(C)C)CC2)CC1` was inactive: -40.7%. As to `COc1ccc(S(=O)(=O)n2nc(C)c(S(=O)(=O)N3CCCCCC3)c2C)cc1OC`, the “activity change, positive = activation” value is inactive: -14.2%. As to `CCCOc1ccc(C(=O)N(Cc2cccs2)c2ccc(C)cc2)cc1`, the “activity change, positive = activation” value is inactive: -20.3%.

For the molecule `COc1ccc(Cl)cc1S(=O)(=O)N1CCN(Cc2cccc(F)c2)CC1`, the “activity change, positive = activation” value is inactive: -33%. For the molecule `CCOC(=O)c1c(C)oc2ncnc(NCCCN3CCN(c4cc(C)ccc4C)CC3)c12`, the “activity change, positive = activation” value is inactive: -18.8%.

As for `COc1ccc(-c2c3c(nc4sc(C(=O)Nc5ccc(F)cc5)c(N)c24)CC(C)(C)CC3=O)cc1`, the “activity change, positive = activation” value is inactive: 16.8%. The value for `CCOC(=O)c1ccc(NC(=O)C2CCN(C(=O)N3CC(C)Oc4ccc(C)cc43)CC2)cc1` (configuration not stated) was inactive: -38.2%. The result for `CCc1sc(Nc2ccc(C)cc2Br)nc1-c1cc2cccc(OC)c2oc1=O` reads inactive: -19.3%; that for `CCOC(=O)CSc1nc2c(sc3ccccc32)c(=O)n1Cc1ccc(C)cc1`, inactive: -8.68%.

Regarding `CC(=O)NCCNc1nc2c(-c3ccc(C)cc3)nnn2c2ccccc12`, the “activity change, positive = activation” value was inactive: 14.6%.
